Data: the supplement of paper PMC11417369
The list shows a part of the results.

Test system: PfHDP1 homeodomain (GST-tagged)
Assay: gcPBM binding intensity (ln(normalized median fluorescence intensity)); higher = stronger DNA binding
Outline: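 An Agilent 4 × 180k array of primer-extended double-stranded 36-bp intergenic genomic probes, with negative controls, was incubated for 1 h with GST-tagged P. falciparum DNA-binding domains expressed in E. coli. Alexa488 anti-GST antibody detected bound protein, scanned at 488 nm. Binding intensity is the highest Masliner-normalised natural-log median intensity across replicate spots of either probe orientation.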

Row | Sequence | gcPBM binding intensity (ln)
1 | GTTTTTAAGAAAAACACACACTCCTGTTATTTTATA [CACACA_site3696] | 6.11
2 | TTTTTTTTTTTCGGGGGTACTAATATATTATTAATA [XGTACX_site7809] | 7.87
3 | ATAAACAAAGTTAAATGTACAAAGGGGTAAAAAAAA [XGTACX_site83] | 6.82
4 | AACAAATTTTTTTTTCCTTTTTTTTTTTTACTTCAT [CACACA_negctrl_site1214] | 5.71
5 | AAATAAATAATATGTAAACACACAAAAAATAAAAAT [CACACA_site8307] | 6.77
6 | TTATTAACCAAACGCACATGCAAAATATATTATATA [TGCATGCA_site915] | 8
7 | TTTTTTTTTCGGAAAAGTACAAAACTTTTTTATAAT [XGTACX_site4670] | 5.92
8 | ACACAATTGAAATAGTGTACAAAATGTTGTTACATA [XGTACX_site8671] | 6.27
9 | TATATATCAATATGCACACACAAGAAGTAATTATAA [CACACA_site7487] | 9.74
10 | AGACTTTGTACAAACACACACATGAGCACAATATTA [CACACA_site6755] | 8.68
11 | TAAAAAGTATATAAGAGTACACATATTTATAAATAT [XGTACX_site3084] | 6.76
12 | TATTTTTATAAAAATCGTACAAGTGATCCAATTTTT [XGTACX_site4402] | 6.5
13 | TTTTTAAAACATATCACACATATATATATATATATA [CACACA_site5991] | 9.46
14 | CCGTATTCAAAAAGGAGTACACAATTATATGTTATA [XGTACX_site641] | 6.42
15 | TATAATATAATTAAAAGTACTTAAAAAAGAATGAAA [XGTACX_site1157] | 6.99
16 | TGTTTATATAATATTCTACACACCAACAACAAACAT [CACACA_site8087] | 7.21
17 | TATTTTTTTTGTTAGGTGCATTTACATTTATTTTTA | 9.16
18 | TGTATGTATTTTCAATGTACATAAAAAAAAAAAAAA [XGTACX_site4397] | 6.71
19 | AAAAATTAAAAGAAAATACACACCTGTGGGTGCTTA [CACACA_site1988] | 5.37
20 | TTATATAGGCAGATGGTGCATCTATTTATAAGCAAC | 9.03
21 | AAAAAAAAAAGTTCTACACACACAAAAAAATATTTT [CACACA_site8725] | 6.61
22 | ATATGAGAGAATAAAACACACAAAAAAAAAAAAAAA [CACACA_site2865] | 6.35

Row | Sequence | gcPBM binding intensity (ln)
23 | TAATAATCAAGTTAACGTACAAAATCATCTATAGAA [XGTACX_site5921] | 6.69
24 | GTAGCCTTTCTTTATAAAGGCAAACAAACAAAAAAT [CACACA_negctrl_site1491] | 6.79
25 | ATTTATTATATATACACACATACATATATATATATA [CACACA_site2159] | 9.1
26 | ATAACAAAATAAAACACACACACAAATGTACTTATA [CACACA_site8768] | 6.58
27 | TGCTTTTATTTCTTCACACATATGTAAAAAAAAGAA [CACACA_site5906] | 6.78
28 | AAAAAATTCTGGTACTGTACACATTTTTTTAAATTT [XGTACX_site6904] | 6.31
29 | ATTATGATTTTATAGAACTGAACATTTACATTAAAT [GTGCAC_negctrl_site192] | 6.29
30 | TGCATACTAGCCAATTGTACATAATTTTATTTTAAA [XGTACX_site513] | 6.38
31 | AAAATAAATCTGAATGGGGTATAATATATCTTTGTT [CACACA_negctrl_site744] | 6.39
32 | AAAAGGAACAGACACACACACATATATATATATATA [CACACA_site3587] | 9.33
33 | AAAAAAAAAAAAAGTACACACTTATAAAATATTATG [CACACA_site4639] | 6.24
34 | TAAATTATCTTTTTATGTACTTATTTTTATTATTTT [XGTACX_site3158] | 6.27
35 | CGCGCACCCAGACACACACACACACCGATATATATA [CACACA_site8687] | 6.9
36 | TATTTTCAACATATTTGTACATATTTTATATTTTAA [XGTACX_site101] | 6.66
37 | ATACGAAAAAAAAAAAGTACACAAAAATATCTACAT [XGTACX_site2051] | 6.19
38 | GTTATACTCATATATACACACATATGTAAATATATA [CACACA_site5764] | 7.55
39 | AAAATATGGATTCATGATATTAAATTTAATTTAATG [XGTACX_negctrl_site214] | 5.92
40 | ATATAAATAATGTTGACACACACAATAATCTTATTA [CACACA_site9197] | 6.41
41 | ATTATATTAGGTAATCAGTTAAATGTTTCCTTTTTA [CACACA_negctrl_site1229] | 6.06
42 | TTTATATAATTTTGTGGTACTTATGTGTGTATATTA [XGTACX_site706] | 6.57
43 | TATATTAAATGAAACAAACACACATAGCCTTTAAAT [CACACA_site1559] | 6.66
44 | ATATCTACTATACAACTGAGTGTAGAAAAATTAAAC [CACACA_negctrl_site1211] | 6.74
